# Source: the supplement of paper PMC3334620
# In all, about 33,000 sequences were measured (“E-score (-0.5 to 0.5)”: median about -0.041, highest 2% from about 0.37 on). Some of the results follow.
# Target: T1, Ecm22 (UniProt Q05958)
# T1 sequence: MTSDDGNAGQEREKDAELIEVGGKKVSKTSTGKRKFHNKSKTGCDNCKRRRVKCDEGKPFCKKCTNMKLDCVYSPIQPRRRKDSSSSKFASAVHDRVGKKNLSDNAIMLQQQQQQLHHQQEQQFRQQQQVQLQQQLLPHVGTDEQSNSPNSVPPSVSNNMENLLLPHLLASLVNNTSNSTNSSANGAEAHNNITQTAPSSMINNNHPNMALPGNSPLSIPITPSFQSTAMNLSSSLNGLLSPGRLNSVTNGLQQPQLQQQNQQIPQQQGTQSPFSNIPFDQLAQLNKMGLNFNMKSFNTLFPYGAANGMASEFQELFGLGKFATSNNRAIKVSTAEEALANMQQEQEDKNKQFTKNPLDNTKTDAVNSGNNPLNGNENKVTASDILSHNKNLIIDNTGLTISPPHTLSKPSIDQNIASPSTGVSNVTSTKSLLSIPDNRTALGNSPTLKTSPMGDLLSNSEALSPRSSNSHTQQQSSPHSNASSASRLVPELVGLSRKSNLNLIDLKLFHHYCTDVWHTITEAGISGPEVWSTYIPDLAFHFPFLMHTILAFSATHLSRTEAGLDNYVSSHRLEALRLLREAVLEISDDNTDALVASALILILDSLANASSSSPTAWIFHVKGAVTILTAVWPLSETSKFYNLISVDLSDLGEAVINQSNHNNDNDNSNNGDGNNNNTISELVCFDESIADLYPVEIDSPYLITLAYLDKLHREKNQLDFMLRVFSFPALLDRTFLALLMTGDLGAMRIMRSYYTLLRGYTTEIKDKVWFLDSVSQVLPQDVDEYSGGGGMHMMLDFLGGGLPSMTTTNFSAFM
# Assay: PBM E-score (8-mer binding enrichment) (E-score (-0.5 to 0.5)); higher = stronger / more preferred TF binding; most listed sequences are background and not binding sites
# Details: protein concentration: 200 nM; construct: GST-full length
# Procedure, shortened: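 E-scores (a modified Wilcoxon-Mann-Whitney statistic) were assigned by the Universal PBM Analysis Suite to every ungapped eight-base word pooled with its reverse complement. The input came from universal all-10-mer Agilent arrays made double-stranded by primer extension and probed with GST-tagged yeast transcription factors at about 100-200 nM. Fluorescent anti-GST detected bound protein, and masliner normalised the scans.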
row,Sequence,PBM E-score
1,CACCTGCA,-0.141
2,GACGCTCC,0.0538
3,CATGCTAA,-0.216
4,CGTCGGAG,-0.0534
5,GGGCGCCC,0.0232
6,ATAAACCG,0.157
7,CACGTCTC,-0.0104
8,CTAATGCA,-0.105
9,AAGACGCC,-0.064
10,CTAATATA,0.132
11,AGGCCAGG,-0.117
12,ATCAAAAG,-0.0342
13,GGCCTACC,-0.163
14,GCCGTGCA,-0.305
15,TAACTGGA,-0.136
16,CCTCGTAC,0.491
17,AACTTTTA,0.163
18,CCTAGGTC,-0.179
19,ATGAGTAC,0.124
20,CCTCAAAA,-0.178
21,GCTTTACC,0.122
22,CTGTCAAG,0.00056
23,GGAACCCC,-0.0773
24,CTGACAAG,-0.112
25,ACATCACA,-0.127

row,Sequence,PBM E-score
1,GCCGATTA,0.025
2,GCGTCAGA,-0.183
3,AACTACTA,0.0421
4,ATTGCCCC,-0.19
5,CCAGGCCC,-0.0635
6,CCTACTAC,-0.14
7,TCAATCGA,0.0501
8,ATCCCAAA,-0.138
9,CAGAGTGG,-0.048
10,AGAAACAG,-0.163
11,ACGTAGTG,-0.206
12,GATTACCA,0.0483
13,AAAGTAGT,-0.273
14,CATTAGGG,-0.168
15,AGACGCCT,-0.219
16,CATATATA,0.126
17,GAGCTACA,-0.304
18,AGGGACCC,-0.213
19,CGCCGTTC,0.362
20,ACGATCGG,0.274
21,CCTGAGAC,-0.163
22,TCCTTTCA,-0.0993
23,AGTAAAGC,-0.048
24,AACCGCCG,0.112
25,AACAGGAC,-0.0972

row,Sequence,PBM E-score
1,AGACAATG,-0.0415
2,GTGCAATA,-0.0126
3,AAATGCGC,-0.0587
4,GATAATGA,0.0909
5,GACCCATA,-0.0211
6,AACCGTTA,0.0731
7,AAGAAAGT,0.08
8,AGGTGTCC,0.0273
9,ACTCACGC,0.0894
10,GGTCATCA,-0.0312
11,ACTCTATA,0.0543
12,CATCGTAA,0.381
13,AGGGAGAA,-0.263
14,CAACCAAA,-0.00251
15,AACTCTAC,-0.0593
16,ACAAGTAG,-0.243
17,CATTGCTA,-0.0185
18,CCTCTTAA,0.028
19,CCACTACA,-0.212
20,AGTAAGCC,-0.0779
21,CCAATTCG,0.0321
22,AAGGTCTG,-0.177
23,ATTTCGCA,0.243
24,CGTAAGTA,0.26
25,AGATAAGC,0.0456

row,Sequence,PBM E-score
1,CCCAAAGG,-0.182
2,CTCACATC,-0.0426
3,CTTATCGC,0.0592
4,TGGCACCA,-0.213
5,GACCGCAC,0.0669
6,ACGGTTCC,0.173
7,GCAGTCCA,-0.121
8,ATTGTGGG,-0.228
9,AGCGCGAT,0.143
10,GCTCCGAC,-0.134
11,ATTCTGCA,0.0479
12,ATCTGGGC,-0.191
13,AGACGTTC,0.15
14,ATGCGCCA,-0.0844
15,CCAAACCG,0.00287
16,GTCAAGAC,-0.324
17,ACCTAAAG,-0.114
18,ACGGAACT,0.157
19,ATCGAAAT,0.0125
20,CTGTAATC,-0.11
21,AGAGATCA,-0.195
22,CAAGTTCG,0.0886
23,ATCGACTA,-0.00258
24,TATCAGCA,-0.147
25,ACCCAAGG,-0.00135

row,Sequence,PBM E-score
1,TAACGGGA,0.0527
2,CAAGATGA,-0.209
3,CAAGATAA,-0.0793
4,ATAATGGG,-0.0259
5,ATATGTAA,-0.0509
6,CGGACGAC,-0.00457
7,ACTCCGTA,0.23
8,AGACCAGC,-0.283
9,CCATAAAA,-0.16
10,ACAATATG,0.0505
11,ACATCACC,-0.0498
12,AACGCCTG,0.0753
13,CACTTACG,0.291
14,AATATATT,0.176
15,CTTGAACC,-0.136
16,TCACAGAA,-0.109
17,GACAGCCA,-0.118
18,AACGACGC,0.448
19,ATCCCTTC,-0.0152
20,ACTCTCCA,-0.202
21,CGCCCAAA,-0.0672
22,CAACCCGC,-0.0355
23,GCCAGTGA,-0.32
24,CGCTGAAC,0.248
25,AGCCGCCC,-3e-05

row,Sequence,PBM E-score
1,CTATACTC,0.0609
2,CTCGCGGC,0.0662
3,AATTCTTG,-0.0195
4,AGTCGCAC,0.214
5,AGTGAGTG,-0.143
6,CGATTCCC,-0.0356
7,ACAAAATA,-0.0601
8,CGTGTAGC,0.0709
9,CCGAACAG,0.163
10,ACTCTAAC,-0.0941
11,GATGAATC,0.0346
12,CCTCGAAG,-0.0058
13,ATAAAGTC,0.0605
14,AGGTTATA,0.15
15,GGCTTCAA,-0.106
16,CCGTAGTA,0.0616
17,ATACTGAT,0.118
18,GCTGAACA,-0.205
19,CAGCCGGC,0.0272
20,CAGGGTAC,0.0283
21,AACCCGAT,0.121
22,AGAAGGCT,-0.356
23,GGGAGTGA,-0.112
24,CAGCGCTA,-0.0704
25,TACGGTAA,0.339

row,Sequence,PBM E-score
1,CCTGACCC,-0.117
2,CTAACCAA,0.0258
3,GACCCCTC,-0.205
4,GACCACAC,-0.0613
5,GCGCGCGC,0.104
6,GGCCCTAC,-0.244
7,CCTTCTCA,-0.057
8,CTTTGTGA,-0.18
9,CGGAAGTC,0.12
10,AGCTTTGA,-0.14
11,AAAGAGTA,-0.21
12,ACCCGGCC,-0.142
13,CCTGAAAG,-0.132
14,AGGCAACG,0.166
15,GATTGGTA,-0.0236
16,GTATATAC,0.334
17,AAACTCCG,-0.112
18,ACCTTTAA,0.113
19,TCGACGCA,-0.00701
20,CATTAAGC,0.0107
21,CTGTCATC,-0.195
22,GTCATGAA,-0.111
23,AATGTGAT,-0.00834
24,CTCGTCCA,-0.0634
25,AAGATCGA,0.0419

row,Sequence,PBM E-score
1,AGGGTGTA,-0.0788
2,ACGGTCGC,0.149
3,AGCGCACC,0.00342
4,GATTCACC,-0.0811
5,GTCGACCA,-0.054
6,AGGCTACT,-0.0431
7,AAATGAGG,-0.244
8,GCCTCGCC,0.101
9,ATGTCGAC,0.124
10,AATAGCGC,0.00167
11,AAAGGACC,-0.117
12,CTCTGAGC,-0.0896
13,CTGGCCCC,-0.0756
14,CTACTGGC,-0.206
15,GGTCCACA,-0.0429
16,AACACTCG,0.258
17,ATGACCAA,-0.00075
18,CTCCAGCA,0.0964
19,CCGAACAC,-0.0402
20,AAGTGTTC,0.0293
21,CGGGAACC,0.0199
22,AAGTATGA,0.0516
23,GTAGTCAA,0.0164
24,AAGAGAAT,-0.154
25,ATTGCTAC,0.156

row,Sequence,PBM E-score
1,TCGTAAGA,0.407
2,GTGTAACA,-0.108
3,GCCCCTAC,-0.0826
4,AGTTAAAA,0.00218
5,GGATAGCC,0.145
6,ACAAGGTA,0.0276
7,CCCACTCA,-0.0867
8,CCTAGTTA,-0.135
9,CATCGTAG,0.261
10,ACGCTTAC,0.0738
11,GGACCAAA,0.0334
12,GGCCATAC,0.158
13,ACGAGTCC,0.341
14,ATTGTAGC,-0.054
15,CATATCAC,0.0678
16,AGGTATCA,-0.259
17,ATCTATCC,-0.0194
18,ACGTTACG,0.319
19,TATCCCAA,-0.11
